Results from PubChem BioAssay AID445 (National Center for Advancing Translational Sciences (NCATS), 2006).
Hit rate of the full screen: of about 110,000 compounds, about 40 (0.04%) were called active. Inconclusive results, whose numbers are uncertain, are shown with a selection of clear calls. The call rests on the fitted dose curve; in most records, active means well fitted curve in the direction sought with a large enough effect in the signal ratio (not every such curve was filed as active); inconclusive means small, poorly fitted or top-dose-only effect, or a change in a side signal; inactive means flat fitted curve, though single readings scatter; the % refers to the signal ratio. Where the call is inconclusive, the potency comes from a doubtful curve fit.

assay: IkB Signaling; conditions: ABC-DLBCL IkBa-CBG/CBR dual luciferase ratio (green luciferase fused to IkBa over red control in OCI-Ly3 lymphoma cells), 4 h; IkBa stabilization activation: at 57.1 µM (top of the series), scaled: untreated 0%, proteasome inhibitor 100% unless noted;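 on IkBa stabilization activation: 0% = basal untreated cells and 100% = reference inhibitor full response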
Procedure, shortened: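 Luminescence ratio of IκBα-fused green versus native red beetle luciferase in OCI-Ly3 cells, 4 h post-doxycycline with compound; red signal alone, scaled from basal (0%) to zero light (-100%), flagged nonspecific or cytotoxic effects.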
Potency means the concentration at half of the fitted maximal effect.

Row | SMILES | IkBa stabilization activation | Potency
1 | CC(C)CCNC(=O)c1ccc(Cn2c(=O)c3cccn3c3cccnc32)cc1 | inactive: -0.248% | 
2 | Cc1ccccc1Nc1c(-c2cccc(O)c2)nc2ccc(Br)cn12 | inconclusive: 5.4% [signal inhibitor] | 
3 | Cc1cccc(Nc2nc(Nc3cccc(C)c3)nc(N3CCOCC3)n2)c1 | inconclusive: 15.7% [signal inhibitor] | 
4 | COc1cc(OC)c(NC(=O)CSC2=Nc3ccccc3N=C(c3ccc(F)cc3)C2)cc1Cl | inconclusive: 1.79% [signal inhibitor] | 
5 | CCOc1ccc(CNC(=O)c2ccc3c(c2)sc2nc(-c4ccc(OC)cc4)cn23)cc1 | inconclusive: 0.283% [signal inhibitor] | 
6 | Cc1sc(C2C(C#N)=C(N)N(c3cccc(Cl)c3)C3=C2C(=O)CCC3)cc1CN1CCOCC1 (centres undefined) | inconclusive: 5.94% [signal inhibitor] | 
7 | COC(=O)c1cc(C(=O)OC)cc(N2C(=O)CC(Sc3nc(C)cc(C)n3)C2=O)c1 (centres undefined) | inactive: 3.2% | 
8 | O=C(c1ccco1)N1CCN(S(=O)(=O)c2ccc(F)cc2)CC1 | inactive: 2.28% | 
9 | C=CCn1c(NC(=O)c2ccccc2Cl)c(C#N)c2nc3ccccc3nc21 | inconclusive: 1.02% [signal inhibitor] | 
10 | O=C(Nc1ccc2sccc2c1)c1ccc(Cl)s1 |  | inconclusive: 15.8 µM [signal inhibitor, partial curve]
11 | O=C(CCC1N=C2c3ccccc3N=C(SCc3ccccc3Cl)N2C1=O)NCc1cccs1 (centres undefined) | inconclusive: 6.35% [signal inhibitor] | 
12 | CC(C)Cc1ccc(S(=O)(=O)Nc2ccc3[nH]c(=O)[nH]c3c2)cc1 | inconclusive: 17.4% [signal inhibitor] | 
13 | Cc1cccc(-c2nnc(SCc3nc4ccccc4[nH]3)n2Cc2ccco2)c1 | inconclusive: 8.03% [signal inhibitor] | 
14 | CCOc1ccc(OCC)c(NC(=O)c2cnc3c(-c4ccccc4)c(C)nn3c2C)c1 | inconclusive: 0.478% [signal inhibitor] | 
15 | COC(=O)c1cc2oc(C)cc2n1Cc1cccc(Cl)c1 | inactive: -0.659% | 
16 | Cc1cc(NC(=O)CSc2nc(-c3cccs3)cc(C(F)(F)F)n2)no1 | inactive: 0.661% | 
17 | O=c1c2oc3ccccc3c2n(Cc2cccc(Cl)c2)c(=O)n1Cc1ccc2c(c1)OCO2 | inconclusive: 0.743% [signal inhibitor] | 
18 | Oc1c(C(c2cccs2)N2CCN(c3cccc(Cl)c3)CC2)sc2ncnn12 (centres undefined) | inactive: -0.641% | 
19 | COc1ccccc1OCC(=O)NCC1(N2CCOCC2)CCCCC1 | inconclusive: 0.555% [signal inhibitor] | 
20 | O=C(NCc1cccc(Cl)c1)c1ccc(CS(=O)Cc2ccccc2Cl)o1 (centres undefined) | inconclusive: -0.452% [signal inhibitor] | 
21 | Cc1cc(C2=CC(C)(c3cc(C)oc3C)Nc3nc(C(F)(F)F)nn32)c(C)o1 (centres undefined) |  | inconclusive: 31.6 µM [rising, partial curve]
22 | CCCOc1ccc(-c2nonc2NC(=O)COc2ccc(C)cc2)cc1OCCC | inactive: -1.47% | 
23 | COCCn1c(SCC(=O)c2ccc(OC)cc2)nc2cc(C(=O)NC3CCCC3)ccc2c1=O | inactive: 0.244% | 

Row | SMILES | IkBa stabilization activation | Potency
24 | CC1CCN(c2ccc(-c3cccc(NS(=O)(=O)c4ccc(Cl)s4)c3)nn2)CC1 | inconclusive: 3.96% [signal inhibitor] | 
25 | Cn1c(CN2CCCC2)nc2cc(NC(=O)Nc3ccccc3)ccc21 | inconclusive: 9% [signal inhibitor] | 
26 | COc1ccc(-c2c(=O)n(OCc3ccccn3)c3ccccc3[n+]2[O-])cc1OC | inactive: 0.604% | 
27 | OC1(c2cccc(C(F)(F)F)c2)CCN(c2ncnc3c2[nH]c2ccc(F)cc23)CC1 | inconclusive: -8.32% [signal inhibitor] | 
28 | c1ccc(-c2nc(-n3ccnc3)nc(-n3ccnc3)n2)cc1 | inconclusive: 7.36% [signal inhibitor] | 
29 | COc1ccc(C2C(C#N)=C(N)Oc3n[nH]c(C)c32)cc1CN1CCN(c2ccc(F)cc2)CC1 (centres undefined) | inconclusive: 5.69% [signal inhibitor] | 
30 | CN(Cc1cccs1)c1ncnc2sccc12 | inconclusive: 1.82% [signal inhibitor] | 
31 | COc1cccc(CCNC(=O)c2cnc3sc(N4CCCC4)nn3c2=O)c1 | inconclusive: -0.475% [signal inhibitor] | 
32 | COc1ccc(Cl)cc1NC(=O)N1CCC2(CC1)Oc1ccccc1C(=O)N2Cc1ccc(F)cc1 | inconclusive: 1.6% [signal inhibitor] | 
33 | CCOC(=O)C1=C(CN(CC)Cc2ccccc2)NC(=O)NC1c1ccc(Cl)cc1 (centres undefined) | inconclusive: 1.68% [signal inhibitor] | 
34 | CC1CCc2c(sc3nnn(CC(=O)Nc4ccccc4Cl)c(=O)c23)C1 (centres undefined) | inconclusive: 14.8% [signal inhibitor] | 
35 | O=C(NCc1cccs1)C1CC(c2ccccc2O)=NO1 (centres undefined) |  | inconclusive: 31.6 µM [signal inhibitor, partial curve]
36 | CCCCc1nc2n[nH]c(N)c2c2c1CCC2 | inactive: -0.544% | 
37 | Cc1ccc(Nc2c3c(nc4ccccc24)CCC3)cc1F | inconclusive: 8.13% [signal inhibitor] | 
38 | O=C(CSc1nc2c(c(C(F)(F)F)n1)CCc1ccccc1-2)NCc1ccco1 | inactive: -0.238% | 
39 | COc1cc(C(=O)Nc2nc3ccc(S(=O)(=O)N4CCOCC4)cc3s2)cc(OC)c1OC | inconclusive: 0.48% [signal inhibitor] | 
40 | NC(=O)c1ccccc1NC(=O)CCc1ccccc1 |  | inconclusive: 15.8 µM [signal inhibitor, partial curve]
41 | O=C(Nc1nccs1)C1CCN(S(=O)(=O)c2ccc3c(c2)OCCCO3)CC1 | inconclusive: 6.18% [signal inhibitor] | 
42 | COc1ccccc1N(CC(=O)NCCSc1ccccc1)S(=O)(=O)c1ccc(C)cc1 | inconclusive: 19% [signal inhibitor] | 
43 | COc1cccc(-c2nn(C)c3sc(C(=O)N4CCN(c5cccc(C(F)(F)F)c5)CC4)cc23)c1 | inactive: -0.993% | 
44 | COc1ccc(CNc2ccnc(-c3c(C)noc3C)n2)c(OC)c1 | inactive: 5.37% [at 11.4 µM, scaled: untreated 0%, proteasome inhibitor 100%] | 
45 | O=C1NCCCC2c3cc(O)c4ccccc4c3OC12N1CCCCC1 (centres undefined) | inconclusive: 7.38% [signal inhibitor] | 
46 | CCOc1cc(C(=O)N2CC(=O)Nc3ccc(F)cc3C2c2ccccc2)cc(OCC)c1OCC (centres undefined) | inconclusive: 3.26% [signal inhibitor] | 

Row | SMILES | IkBa stabilization activation | Potency
47 | COc1ccc(Nc2oc(COc3cccc(C)c3)nc2C#N)cc1 | inactive: 2.95% | 
48 | CC(C)OCCCNC(=O)Cn1c(-c2cccs2)cc2cc(F)ccc21 | inconclusive: 0.0585% [signal inhibitor] | 
49 | COc1ccc(NC(=O)Cn2nc(C)c3c(C)n(-c4ccccc4)nc3c2=O)cc1OC | inconclusive: 0.198% [signal inhibitor] | 
50 | CCOc1cc(-c2cc(C(=O)O)c3c(-c4ccccc4)[nH]nc3n2)ccc1O |  | inconclusive: 3.16 µM [signal inhibitor, full curve]
51 | COc1ccc(S(=O)(=O)NCC(c2ccco2)S(=O)(=O)c2cccs2)cc1OC (centres undefined) | inconclusive: -0.553% [signal inhibitor] | 
52 | CN1CCN(Cc2c(O)ccc3occ(C(=O)c4ccccc4)c23)CC1 | inactive: 0.461% | 
53 | CCOc1ccc(-c2c(C)nn3c(C)c(C(=O)NC(C)c4ccccc4)cnc23)cc1OCC (centres undefined) | inconclusive: -2.17% [signal inhibitor] | 
54 | CCCCC(=O)Nc1cc(-c2cn3cccnc3n2)ccc1C | inactive: -0.00221% | 
55 | CCn1c(SCc2ccc(OC)cc2)nnc1-c1ccncc1 | inconclusive: 1.89% [signal inhibitor] | 
56 | O=C(CCSCc1ccccc1Cl)NCCc1ccccc1 | inconclusive: -1.13% [signal inhibitor] | 
57 | O=C(NCc1ccccc1)c1n[nH]nc1-c1ccccc1O |  | inconclusive: 15.8 µM [signal inhibitor, partial curve]
58 | O=C(Cn1ccn(-c2ccc(F)c(F)c2)c(=O)c1=O)NCc1ccccc1 | inactive: -0.525% | 
59 | COc1ccc(CNc2nc(-c3ccccc3)nn2C(=O)c2ccccc2OC)cc1 | inactive: 0.945% | 
60 | CCOC(=O)c1cc2c(=O)n3ccccc3nc2n(CC2CCCO2)c1=NC(=O)c1ccc(OCC)cc1 (centres undefined) | inconclusive: 1.72% [signal inhibitor] | 
61 | C=C1CC[C@H](O)C/C1=C/C=C1\CCC[C@]2(C)[C@@H]([C@H](C)CCCC(C)C)CC[C@@H]12 | inconclusive: 1.46% [signal inhibitor] | 
62 | CCOC(=O)c1cccc(NC(=O)Cn2cnc3nc4c(cc3c2=O)CCCC4)c1 | inactive: 4.01% | 
63 | CN(Cc1ccccc1)C(=O)CSc1nc2ccccc2c(=O)n1Cc1ccco1 | inconclusive: 1.15% [signal inhibitor] | 
64 | COc1ccc(N2CC(c3nc(-c4ccccc4C)no3)CC2=O)cc1Cl (centres undefined) | inactive: 3.08% | 
65 | CN(C)c1ccc(NC(=S)c2ccccn2)cc1 |  | inconclusive: 25.1 µM [signal inhibitor, partial curve]
66 | COc1ccc(-c2noc(CNC(=O)c3ccc(OC)cc3OC)n2)cc1 | inconclusive: 0.628% [signal inhibitor] | 
67 | CCC1=Nc2cc(C(=O)N3CCC(C)CC3)ccc2Sc2ccc(C)cc21 | inconclusive: 1.59% [signal inhibitor] | 
68 | CN1CCN(c2ncc3nc(-c4cccc(C#N)c4)c(=O)n(CCC#N)c3n2)CC1 | inactive: 0.342% [at 11.4 µM, scaled: untreated 0%, proteasome inhibitor 100%] | 
69 | CCOC(=O)c1c(NC(=O)COc2ccc(OC)cc2)sc(C(=O)N(CC)CC)c1C | inconclusive: -0.594% [signal inhibitor] | 
